Test results published in the RNAGym collection of RNA variant scans (doi:10.7554/elife.90254).
The source gives no read counts; variants with many changes may rest on few reads.

B1: LINE1-mini (parent)
chain: GGCAGAGCUCAACACAGCGUGGCAAAGUGGCUGUGGCUAGACUGCC

Variants of: B1
Experiment: self-cleavage, relative activity (ratio to wild type); higher = more cleavage; in vitro, sequencing; the parent is a self-cleaving ribozyme
For A24U G35A C46U, the self-cleavage was 0. C15A C18U G21A G22U C23A C46G showed a self-cleavage of 0.03. In the case of G5A U28A C31A G33U, the self-cleavage is reported as 0.07. A4U G5U A12G G21C C42U showed a self-cleavage of 0.01. For A6C G7A G36U C37U C46G, the self-cleavage was 0.02. With A4C C13A A41C the self-cleavage was 0.02. A6G A25C G29C showed a self-cleavage of 0. In the case of C3U G7C G21U U38C G40C, the self-cleavage is reported as 0.04. With C8A G33C G36A C37U the self-cleavage was 0.19. For G5U A6C C8U G27U, the self-cleavage was 0.16. A11C G40C C46G gave a self-cleavage of 0.02. With G21C G22A G35C A39G C46G the self-cleavage was 0.07. For G1U G19U U28C C46G, the self-cleavage was 0.07. A12U G35U U43A gave a self-cleavage of 0.16. Work on G1A C3A U34A G36U U43C yielded a self-cleavage of 0.65. For C10A C23G A24C C37A C42G, the self-cleavage was 0.01. With C8A U20G G29A G44U the self-cleavage was 0.36. Variant C10A U20G U28G has a self-cleavage of 0. Variant C3G C23G U32C has a self-cleavage of 0.05. With A25G G30A G35U the self-cleavage was 0.06. A11U A24U U38C gave a self-cleavage of 0.1. For G17U U38A C46G, the self-cleavage was 0.07. With G21U G30U G35U U38C the self-cleavage was 0.41. C8G C10A U34A C37A showed a self-cleavage of 0.02. U28G U32G G33A G35U gave a self-cleavage of 0.18. With G2U C15U A24G C31U U43C the self-cleavage was 0.01. In the case of C3G A12U A16G G29A G44U, the self-cleavage is reported as 0.54. For C3A G5U U38G, the self-cleavage was 0.03. G5A A16G U43G C45U gave a self-cleavage of 0. Work on C13G U20C U28G yielded a self-cleavage of 0.06. Variant G22C U28C C37A has a self-cleavage of 0.03. Variant C13A G19C G27U U32C G36A has a self-cleavage of 0.03. Variant G22U A25G A39C has a self-cleavage of 0.31. Work on A11U A24U C37A yielded a self-cleavage of 0.01. Work on A11U G17U C37U yielded a self-cleavage of 0.04. With A6U A12C G35U U38A the self-cleavage was 0.02. Work on C18A C23G C31U C37G U43A yielded a self-cleavage of 0.01. A4G A14U C23U G36C C37U showed a self-cleavage of 0.05. C18G C31U G40A gave a self-cleavage of 0.01. For C8U G21A C23U A25G A26U G35U, the self-cleavage was 0.12. For U9G A16C C31U C37A, the self-cleavage was 0.03. G36A C37G U38G gave a self-cleavage of 0.02. U9G A11U G22A U28C C45G showed a self-cleavage of 0.02. Variant C13A A24G G27A has a self-cleavage of 0.03. Work on G2A G27U G29U U32G yielded a self-cleavage of 0.17. Work on G17C A24G G44U yielded a self-cleavage of 0. G7C G27U G29C C31U gave a self-cleavage of 0.08. Variant A12G G35A C37U has a self-cleavage of 0.01. With G30U G36U A39U the self-cleavage was 0.07. G1C G5U C18G C46A showed a self-cleavage of 0.01. For C8A A25G U28A G29A G35U, the self-cleavage was 0.08. Work on C8G G27U A39U C46U yielded a self-cleavage of 0.01. With A6U C23A A25G U38C the self-cleavage was 0.53. In the case of G19U U34A A41U, the self-cleavage is reported as 0.07. Variant A4G A16G A26U C45G C46G has a self-cleavage of 0.15. Variant U9G A14C C31A G33A A41C C45U has a self-cleavage of 0.03. U38A A39C G40U gave a self-cleavage of 0.03. In the case of G5U A25U G33U G35A G40C, the self-cleavage is reported as 0.02. With G7C C10U G36A the self-cleavage was 0.06. Work on U9G G29A U34A U38C yielded a self-cleavage of 0.02. With G27A G30U A39U C46G the self-cleavage was 0.83. Variant C18G C23U G30C has a self-cleavage of 0.64. With A12G C23A U32C A39C C45U C46U the self-cleavage was 0.04. With C3A G29U C42U the self-cleavage was 0.34. A6U G21U G36U showed a self-cleavage of 0.03. For A6U A12G G19U G40A, the self-cleavage was 0.05. G2A U20G G29A G35A showed a self-cleavage of 0.41. Variant G2U A11G A14C C23U U34C has a self-cleavage of 0. In the case of U28G U34A G36C U38C A41C, the self-cleavage is reported as 0.02. In the case of G2U G17C G19A A39G, the self-cleavage is reported as 0.02. C10U A25G G40C showed a self-cleavage of 0.02. Variant A4G G7C A26G has a self-cleavage of 0.11. A16G G17A A24U gave a self-cleavage of 0.04. For A6G A24U C42A, the self-cleavage was 0.04. G1U G30C G33A G35C showed a self-cleavage of 0.02. C10U A16U C31U showed a self-cleavage of 0. Variant G17A C31U G36A U43C has a self-cleavage of 0.32. G5A G7U C10G gave a self-cleavage of 0.02. Variant G1U C8G C10A A12G U20G U34G C46G has a self-cleavage of 0. With G1U C13U A14C C15A C31G the self-cleavage was 0.05. Variant C31U C37U G44C has a self-cleavage of 0.04. For U9G G19U C23A U34C, the self-cleavage was 0.18. Work on A4U G5U C13A A14C A39U yielded a self-cleavage of 0.02. For G7U G27A C31A U34A, the self-cleavage was 0.05. A16G A41U C45A showed a self-cleavage of 0.05. With C10A G22U C37A the self-cleavage was 0. C13G C18U G33A gave a self-cleavage of 0.02. In the case of G2A C18A U28C C45U, the self-cleavage is reported as 0.66. G36C G40C C46A gave a self-cleavage of 0.02. A4G C8U G27U G29U gave a self-cleavage of 0.15. In the case of C8G C18G C37U, the self-cleavage is reported as 0.17. In the case of C15U A16U G22A, the self-cleavage is reported as 0.13. Work on G1C A11U G29C G30U G40A yielded a self-cleavage of 0.01. For C8G C18U C23G, the self-cleavage was 0.09. In the case of G1C C10U U28C G29U U32C G40C, the self-cleavage is reported as 0. For G1U G2A A26G, the self-cleavage was 0.18. Variant C23G G33C A39C has a self-cleavage of 0.03. For G5A U32C U43G, the self-cleavage was 0.23. Work on A6G A14U G17A yielded a self-cleavage of 0.09. Work on G1A G2C A6U C8U G19A A25C G30C U43A yielded a self-cleavage of 0.12. In the case of C3A G7A A26G U34G C45G, the self-cleavage is reported as 0.13. Variant G7U U20C C31G G36U C42U has a self-cleavage of 0.05. With G1A G7U G36C the self-cleavage was 0.23. In the case of G7U G29C U34C, the self-cleavage is reported as 0.08. Variant C13A C18G A26C G40C has a self-cleavage of 0.01. For C13A A24G G29A, the self-cleavage was 0.19. With A4U A16C G19A G29C G30C the self-cleavage was 0.02. U34A G35U A39G showed a self-cleavage of 0.15. A4G C10U C18A G27A showed a self-cleavage of 0.03. Work on G21U C31U G40A U43A yielded a self-cleavage of 0.01. With C10A G27U G29U the self-cleavage was 0.05. For C10G G19C C31G G35A C42U, the self-cleavage was 0. In the case of A14G C37G U38G, the self-cleavage is reported as 0.01. For G5C G7C C31U, the self-cleavage was 0.02. For C3A A16C C31U G33U G36A, the self-cleavage was 0.02. In the case of C8U C10U A12G A26U, the self-cleavage is reported as 0.01. G2U C3U U20G G33U A41U showed a self-cleavage of 0.03. Work on C3A C10A G35U yielded a self-cleavage of 0.08. A11G C18U G33A U43C showed a self-cleavage of 0.03. Variant C3A A24G U32A has a self-cleavage of 0.18. For C10U A14U C42U, the self-cleavage was 0.03. U9C C15U U38C C42A gave a self-cleavage of 0. With G30C C31G C46U the self-cleavage was 0.15. G1U C8G A24U U32A G33U C37U U43A gave a self-cleavage of 0.01. For A12C C15A G27C C45G, the self-cleavage was 0.02. G5U C10A C15A A16U G17U A24C gave a self-cleavage of 0.01. Variant A16C G21U G27U U32C U34A has a self-cleavage of 0.01. Work on G7C U20A G30A C37A yielded a self-cleavage of 0.06. In the case of A12G A24G C45A, the self-cleavage is reported as 0.04. With U20A C37A C42U U43G C46G the self-cleavage was 0. A6U C10A C18U gave a self-cleavage of 0.06. Variant A4C A16C G27A U28G C45G has a self-cleavage of 0. G2U C10A U28G G30A U34C gave a self-cleavage of 0.01. With A11G A16C G27C G44A the self-cleavage was 0.03. Variant A14G G33A C45G has a self-cleavage of 0. Work on G7C C8G G29A G33C yielded a self-cleavage of 0.04. G1A C15U G27C G33U G40U gave a self-cleavage of 0.02. U9G G22U G27U showed a self-cleavage of 0.05. C10U G17A G36A C42G gave a self-cleavage of 0.03. With A4G A6U A25U G35A the self-cleavage was 0.2. C3U C15U C45A gave a self-cleavage of 0.11. G2A U9G C13G gave a self-cleavage of 0.9. In the case of U9A G27U G29U C46A, the self-cleavage is reported as 0.22. Work on G5C G7C C13U G17A U20A yielded a self-cleavage of 0.03. Work on G5U U20C C31A yielded a self-cleavage of 0.02. Work on G1A A12G C15G G29U C46A yielded a self-cleavage of 0.03. Work on G7C A12U G29A yielded a self-cleavage of 0.04. For C10A C15G U32G G36U, the self-cleavage was 0.01. G5U C8A G21U U38C G44U gave a self-cleavage of 0.27. C13G U20C G36A showed a self-cleavage of 0.03. In the case of A4C G29U A39G, the self-cleavage is reported as 0.11. With A11C A14C U20A U38A the self-cleavage was 0.02. With U9G A39G U43A the self-cleavage was 0.03. Variant G7C U9C C18A has a self-cleavage of 0.03. With C13G A26G C46G the self-cleavage was 0.02. For A6U C23G A41C, the self-cleavage was 0.05. In the case of C3G A12C U20C, the self-cleavage is reported as 0. Variant C23A G29U G33U has a self-cleavage of 0.07. Work on C8A C15A C31U U34C yielded a self-cleavage of 0.09. G2A G19C G36C gave a self-cleavage of 0.06. In the case of G22U G30A A39G, the self-cleavage is reported as 0.07. Variant C13A G29U G35A G40C has a self-cleavage of 0.02. For G17C C18A G29A G30A, the self-cleavage was 0.09. In the case of G1U A14U G29U, the self-cleavage is reported as 0.04. G1A G17U U28C U34G C37U showed a self-cleavage of 0.04. Variant C10A A11U A24U C31A has a self-cleavage of 0.01. In the case of G7A C13A U32A G33U U43C C46U, the self-cleavage is reported as 0.12.
